Our source for the cell count values is the supplement of paper PMC4604168 (melanoma cell lines).

The list shows a part of the results. Repeats are few or missing, and single values can be far off.
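Note: cell number obtained by counting DAPI-stained nuclei in high-throughput microscope images with image analysis software, screen run in 1,536-well plates.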

The assay relates to IST-MEL1. As to the kind of experiment: cell count relative to DMSO control; melanoma cells; higher = more viable cells. As to conditions: library dose: low library concentration; 72 h.
For `N#CC[C@H](C1CCCC1)n1cc(-c2ncnc3[nH]ccc23)cn1` [ruxolitinib] + C=CCn1c(=O)c2cnc(Nc3ccc(N4CCN(C)CC4)cc3)nc2n1-c1cccc(C(C)(C)O)n1 [MK1775] (first compound 1 µM, partner dose 0.02 µM), the cell count was 94.4%.

In turn, `CC[C@]1(O)C[C@H]2CN(CCc3c([nH]c4ccccc34)[C@@](C(=O)OC)(c3cc4c(cc3OC)N(C=O)[C@H]3[C@@](O)(C(=O)OC)[C@H](OC(C)=O)[C@]5(CC)C=CCN6CC[C@]43[C@@H]65)C2)C1` [vincristine] + C[C@@H]1CCN(C(=O)CC#N)C[C@@H]1N(C)c1ncnc2[nH]ccc12 [CP690550] (first compound 0.0001 µM, partner dose 1 µM) yielded a cell count of 94.6%. In the case of `N#CC[C@H](C1CCCC1)n1cc(-c2ncnc3[nH]ccc23)cn1` [ruxolitinib] + O=C1NC(=O)/C(=C/c2ccc(-c3ccc(F)cc3O)o2)S1 [AS252424] (first compound 1 µM, partner dose 1 µM) it was 108%; in that of `CC[C@]1(O)C[C@H]2CN(CCc3c([nH]c4ccccc34)[C@@](C(=O)OC)(c3cc4c(cc3OC)N(C=O)[C@H]3[C@@](O)(C(=O)OC)[C@H](OC(C)=O)[C@]5(CC)C=CCN6CC[C@]43[C@@H]65)C2)C1` [vincristine] + COc1ccc(-c2ccc3c(N4CCOCC4)nc(N4C[C@@H](C)O[C@@H](C)C4)nc3n2)cc1CO [KU0063794] (first compound 0.0001 µM, partner dose 0.02 µM), 107%. In the case of `N#CC[C@H](C1CCCC1)n1cc(-c2ncnc3[nH]ccc23)cn1` [ruxolitinib] + CCN(CC)CCCCNc1ncc2cc(-c3cc(OC)cc(OC)c3)c(NC(=O)NC(C)(C)C)nc2n1 [PD173074] (first compound 1 µM, partner dose 0.1 µM) it was 97.5%; in that of `N#CC[C@H](C1CCCC1)n1cc(-c2ncnc3[nH]ccc23)cn1` [ruxolitinib] + O=C(Nc1cccc(Cl)c1)Nc1ncc(CCNc2ncnc3ccsc23)s1 [SNS314] (first compound 1 µM, partner dose 0.0008 µM), 95%. Take `N#CC[C@H](C1CCCC1)n1cc(-c2ncnc3[nH]ccc23)cn1` [ruxolitinib] + NC(=O)Nc1cc(-c2cccc(F)c2)sc1C(=O)N[C@H]1CCCNC1 [AZD7762] (first compound 1 µM, partner dose 0.02 µM): the cell count was found to be 112%. For `N#CC[C@H](C1CCCC1)n1cc(-c2ncnc3[nH]ccc23)cn1` [ruxolitinib] + CC(C)CCN1c2nc(Nc3cc(F)c(O)c(F)c3)ncc2N(C)C(=O)C1C [BID1870] (first compound 1 µM, partner dose 0.2 µM) the value was 105%; for `N#CC[C@H](C1CCCC1)n1cc(-c2ncnc3[nH]ccc23)cn1` [ruxolitinib] + c1cc(-c2cnn3cc(-c4ccc(OCCN5CCCCC5)cc4)cnc23)ccn1 [Dorsomorphin] (first compound 1 µM, partner dose 0.4 µM), 95.5%. `Cc1cc(Nc2cc(N3CCN(C)CC3)nc(Sc3ccc(NC(=O)C4CC4)cc3)n2)n[nH]1` [Tozasertib] + Oc1cc(-c2nc(-c3ccccc3)[nH]c2-c2ccncc2)ccc1Cl [L779450] (first compound 0.006 µM, partner dose 0.2 µM) came in with a cell count of 91.3%. Regarding `N#CC[C@H](C1CCCC1)n1cc(-c2ncnc3[nH]ccc23)cn1` [ruxolitinib] + CC1(C)NC(=O)N(c2ccc([N+](=O)[O-])c(C(F)(F)F)c2)C1=O [nilutamide] (first compound 1 µM, partner dose 1 µM), the cell count worked out at 97.2%. Compound `Cc1cc(Nc2cc(N3CCN(C)CC3)nc(Sc3ccc(NC(=O)C4CC4)cc3)n2)n[nH]1` [Tozasertib] + CC(C)CCN1c2nc(Nc3cc(F)c(O)c(F)c3)ncc2N(C)C(=O)C1C [BID1870] (first compound 0.006 µM, partner dose 0.2 µM) displayed a cell count of 101%.

The compound `N#CC[C@H](C1CCCC1)n1cc(-c2ncnc3[nH]ccc23)cn1` [ruxolitinib] + COc1ccc(-c2ccc3c(N4CCOCC4)nc(N4C[C@@H](C)O[C@@H](C)C4)nc3n2)cc1CO [KU0063794] (first compound 1 µM, partner dose 0.02 µM) gave a cell count of 97.2%.
